Data taken from publication PMC4336329 (PLoS ONE, 2015).
The campaign covered roughly 310,000 compounds. About 2,200 (0.71%) showed an effect of 50% or more. The effect is printed as a negative number. This is one part of the list.

What follows are compounds tested against human ether-à-go-go-related gene (hERG) potassium channel (human, UniProt Q12809) (assay: primary screen, population patch clamp on CHO cells stably expressing hERG).
Sequence of human ether-à-go-go-related gene (hERG) potassium channel (Q12809 whole entry, looked up): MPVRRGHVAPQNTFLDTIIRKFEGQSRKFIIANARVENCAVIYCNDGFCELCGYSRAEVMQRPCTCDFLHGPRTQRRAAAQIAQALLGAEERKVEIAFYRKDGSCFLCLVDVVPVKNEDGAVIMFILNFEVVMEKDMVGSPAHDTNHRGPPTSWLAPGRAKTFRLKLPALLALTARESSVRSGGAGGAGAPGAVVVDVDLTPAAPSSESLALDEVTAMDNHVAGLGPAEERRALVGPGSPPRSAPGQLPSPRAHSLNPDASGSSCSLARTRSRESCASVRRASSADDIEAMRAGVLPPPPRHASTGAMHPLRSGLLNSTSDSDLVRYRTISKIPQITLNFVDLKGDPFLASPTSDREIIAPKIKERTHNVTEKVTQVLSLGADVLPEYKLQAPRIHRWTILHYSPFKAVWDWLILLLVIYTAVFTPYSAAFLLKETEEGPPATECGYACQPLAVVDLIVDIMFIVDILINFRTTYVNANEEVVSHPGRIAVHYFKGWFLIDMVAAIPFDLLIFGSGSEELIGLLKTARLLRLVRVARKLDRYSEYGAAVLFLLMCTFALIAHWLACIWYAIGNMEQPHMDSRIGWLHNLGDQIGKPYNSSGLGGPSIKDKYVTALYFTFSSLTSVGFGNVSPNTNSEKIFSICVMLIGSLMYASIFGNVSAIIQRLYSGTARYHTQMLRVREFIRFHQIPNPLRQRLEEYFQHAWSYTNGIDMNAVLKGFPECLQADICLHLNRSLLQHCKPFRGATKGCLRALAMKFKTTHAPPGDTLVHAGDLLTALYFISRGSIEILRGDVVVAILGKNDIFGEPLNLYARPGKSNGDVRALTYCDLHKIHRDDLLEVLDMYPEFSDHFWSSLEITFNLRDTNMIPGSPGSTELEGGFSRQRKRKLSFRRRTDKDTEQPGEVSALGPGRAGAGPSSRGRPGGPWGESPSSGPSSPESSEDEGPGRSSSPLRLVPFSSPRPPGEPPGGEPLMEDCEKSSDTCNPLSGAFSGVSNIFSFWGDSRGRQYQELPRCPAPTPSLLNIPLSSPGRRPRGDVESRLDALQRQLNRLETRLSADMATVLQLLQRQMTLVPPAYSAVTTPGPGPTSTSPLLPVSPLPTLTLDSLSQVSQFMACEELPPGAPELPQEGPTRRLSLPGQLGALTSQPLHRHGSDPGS

Row | Structure (SMILES) | hERG current change (%, negative = inhibition) at 1uM [%]
1 | CNc1nc(-c2ccc3c(c2)CCN3C(=O)c2ccccc2F)c(C)s1 | 7.35
2 | CCOC(=O)C1CCCCN1Cc1ccccc1C(F)(F)F (stereo not drawn) | 6.1
3 | Cc1nnc(SCC(=O)Nc2ccc(F)cc2F)n(N)c1=O | -2.79
4 | O=C(COC(=O)c1ccc(S(=O)(=O)N2CCOCC2)cc1)NC1CCCCCCC1 | 9.32
5 | COC(=O)C1=C(c2ccc(OC)c(OC)c2)C[C@@H]2CC[C@H]1N2C(=O)NC1Cc2ccccc2C1 | 9.6
6 | CC1=CCC2C(=O)N(c3ccc(C(=O)N4CCCCCC4)cc3)C(=O)C2C1 (stereo not drawn) | 13.3
7 | O=c1[nH]cnc2c1c(-c1ccccc1)cn2-c1ccc(Br)cc1 | 10.4
8 | COc1cc(/C=N/NC(=O)C(=O)NCc2ccco2)cc(Cl)c1O | 6.32
9 | CC(C)CCNC1c2ccccc2C(=O)N1Cc1ccccc1.Cl (stereo not drawn) | 16.7
10 | COC(=O)Nc1ccc(NC(C)=O)cc1 | 21.6
11 | O=C(c1ccc2c(c1)OCCCO2)N1CCCCC1 | 15.7
12 | COC(=O)[C@H](Cc1ccccc1)NC(=O)NCCc1ccc(OC)cc1 | 7.6
13 | COc1ccc(/C=C/C(=O)NC(=S)Nc2ccc(S(=O)(=O)Nc3cc(C)on3)cc2)cc1 | -6.85
14 | Cc1cc2c(cc(C(=O)N3CCC(C(=O)N4CCCC4)CC3)n2Cc2c(F)cccc2Cl)o1 | -1.17
15 | O=C(N/N=C/c1ccccn1)c1cc(-c2ccc(Br)s2)[nH]n1 | 12.2
16 | N#Cc1ccc(Cn2cc(C=O)c3ccccc32)cc1 | -8.65
17 | CNC(=S)N1CCN(C(c2ccccc2)c2ccccc2)CC1 | 9.53
18 | Cc1ccc(CNC(=O)c2ccc(CN3CCOCC3)cc2)cc1 | 10.4
19 | COc1ccc2c(c1)c(C(=O)CNc1nc(C)cs1)c(C)n2C.I | 4.62
20 | Cc1c(C(=O)N2CCCCCC2)oc2ccccc12 | 2.41
21 | CC1CCCC(C)N1/N=C/c1c[nH]c2ccc(Br)cc12 (stereo not drawn) | 12.1
22 | Cc1ccc(C(=O)NNC(=O)c2ccccc2)cc1S(=O)(=O)N1CCCCC1 | 0.738
23 | COc1cccc(CNC(=O)C2CCN(S(=O)(=O)c3cccs3)CC2)c1 | -8.7

Row | Structure (SMILES) | hERG current change (%, negative = inhibition) at 1uM [%]
24 | O=C(NCc1csc(-c2cccs2)n1)Nc1ccc(C(F)(F)F)cc1 | 10.7
25 | C=CCNC(=O)c1c(Cl)cnn1-c1ccc(C)cc1 | 16.3
26 | CSc1nc(N)c2c3c(sc2n1)COC(C(C)C)C3 (stereo not drawn) | -3.55
27 | COc1ccc(CCNc2nc(-c3cccc(NC(C)=O)c3)cs2)cc1OC | -5.96
28 | CN1/C(=C\C(=O)c2cccnc2Cl)C(C)(C)c2ccccc21 | 6.79
29 | CNC(=O)NC(=O)COC(=O)CCCOc1ccc(OC)cc1 | 14.6
30 | CC(NC(=O)COC(=O)c1ccc2ccccc2n1)C1CC2CCC1C2 (stereo not drawn) | 15
31 | CC(=O)c1ccc(-c2ccc(C(=O)N3CCCc4ccccc43)o2)cc1 | 7.91
32 | CC1CN(C(=O)CSc2nc(N)cc(N)n2)CC(C)O1 (stereo not drawn) | 6.44
33 | COc1ccc(C(=O)Nc2cc(=O)n(C)c(=O)n2C)cc1 | 5.06
34 | Cn1nccc1C(=O)c1ccc(Cl)cc1 | 6.6
35 | CC(=O)NS(=O)(=O)c1ccc(N/C(N)=N/c2nc(C)cc(C)n2)cc1 | 17.1
36 | NC(=O)CN1C(=O)C2C3C=CC(C3)C2C1=O (stereo not drawn) | 12.5
37 | Nn1c(SCC(=O)Nc2ccccc2Br)nnc1-c1ccco1 | 3.96
38 | CCO[C@@H]1OC(C(=O)O)=C[C@H](c2csc3ccccc23)[C@H]1CCCO | 4.69
39 | CC(=O)Nc1cccc(NC(=O)CSc2ncc(C(=O)Nc3ccccc3)c(=O)n2C)c1 | 11.7
40 | CCS(=O)(=O)N1CCN(C(=O)c2ccccc2[N+](=O)[O-])CC1 | 13.7
41 | O=C(O)c1ccc(S(=O)(=O)N(Cc2ccccc2)C2CCCCC2)cc1 | 8.15
42 | CCOC(=O)Cn1nc(C)n(-c2ccc(C(C)C)cc2)c1=O | 7.27
43 | Cl.NCCS(=O)(=O)NC1CCCCC1 | 8.87
44 | COC(=O)CCC(=O)OC1(C)C(=O)C2=COC(c3ccc(OC)cc3)=CC2=C(Br)C1=O (stereo not drawn) | 16
45 | O=C(OCCN=C1NS(=O)(=O)c2ccccc21)c1cccs1 | 12.3
46 | O=C(Nc1cccc(C(F)(F)F)c1)C1=CC=CN2CCS(=O)(=O)N=C12 | -2.87

Row | Structure (SMILES) | hERG current change (%, negative = inhibition) at 1uM [%]
47 | COc1ccccc1/C=C1\SC(=S)N(CCC(=O)N2CCN(C)CC2)C1=O | 14.8
48 | CC1CCN(C(=O)c2ccc(Br)c(S(=O)(=O)N3CCOCC3)c2)CC1 | 6.02
49 | O=C1c2ccccc2C(=O)c2c1ccc1c(=O)n(C3CCCCC3)[nH]c21 | 13.3
50 | CCCCN(Cc1cc2ccccc2[nH]c1=O)S(C)(=O)=O | 5.11
51 | COc1ccc(N2C(=O)CC(S/C(N)=N/N=C/c3ccnc4ccccc34)C2=O)cc1 (stereo not drawn) | 15.4
52 | C/C(=N/NS(=O)(=O)c1ccc(C)cc1)c1ccc2c(c1)OCO2 | 17.4
53 | COc1ccccc1Nc1nnc(SCc2nnc(-c3cc(OC)c(OC)c(OC)c3)o2)s1 | 9.56
54 | O=C(NCc1ccccc1)c1onc(CSc2ccc(F)cc2)c1C(=O)NCc1ccccc1 | 5.63
55 | CCSc1nnc(NC(=O)[C@@H](NC(=O)c2cccc(C)c2)C(C)C)s1 | 12.7
56 | COCC(=O)N1CCC(Oc2ccc(C(=O)NC3Cc4ccccc4C3)cc2)CC1 | 10.2
57 | CC(=O)N1CCCc2cc(S(=O)(=O)NCc3ccc(C)cc3)ccc21 | 4.86
58 | Cc1nn(-c2ccccc2)c(C)c1C(=O)OCC(=O)N1CCN(S(=O)(=O)c2ccccc2)CC1 | -6.28
59 | O=C1CC(C(=O)Nc2ccc(Cl)cc2[N+](=O)[O-])C2(CCCCC2)O1 (stereo not drawn) | 8.1
60 | C=CCN(C(=O)c1ccc2snnc2c1)c1ccccc1 | 8.2
61 | O=C(c1cc(-c2ccccc2)on1)N1CCCC1 | 17
62 | CC(C)Oc1ccc(S(=O)(=O)N2CCCCC2)cc1NC(=O)CC1OC(=O)c2ccccc21 (stereo not drawn) | 6.12
63 | O=C(NCCN1CCOCC1)c1cccc(S(=O)(=O)N2CCCCC2)c1 | 16.1
64 | CCOc1ccc(OCC(O)CNC2CCN(Cc3ccccc3)CC2)cc1.O=C(O)C(=O)O (stereo not drawn) | -1.45
65 | CCC(C)NC(=O)c1ccccc1NC(=O)CN(c1ccc(OC)cc1)S(C)(=O)=O (stereo not drawn) | 3.21
66 | CC(=O)Nc1ccc(/C=N/NC(=O)c2cccc(S(=O)(=O)N3CCOCC3)c2)cc1 | 14.1
67 | CC(C)C(c1nnnn1Cc1ccccc1)N(Cc1ccco1)Cc1cccs1 (stereo not drawn) | 12.8
68 | Cc1ccccc1-n1ncc2c1CC(C)(C)CC2NC(=O)CCN1Cc2ccccc2C1=O (stereo not drawn) | 13.6
69 | Cc1ccc(Cl)c2sc(N3CCN(C(=O)c4ccco4)CC3)nc12 | -0.903

Row | Structure (SMILES) | hERG current change (%, negative = inhibition) at 1uM [%]
70 | CCOC(=O)c1cc(C(C)(C)C)nc(SC)c1C#N | 12.9
71 | O=C(NCc1ccco1)c1ccc(COc2cccc3ccccc23)cc1 | 4.4
72 | C=CCNC(=O)c1c(C(F)(F)F)nn(C)c1Cl | 3.1
73 | O=C(O)c1ccccc1C(=O)c1cccs1 | 12.2
74 | O=C(C1CCC1)N1CCc2cc(S(=O)(=O)NC3CCCc4ccccc43)ccc21 (stereo not drawn) | 6.8
75 | Cc1ccc2cccc(S(=O)(=O)Nc3ccc4c(c3)OCO4)c2n1 | -3.55
76 | CCOc1ccccc1NC(=O)CCNS(=O)(=O)c1ccccc1 | 14.4
77 | Cc1ccc(NC(=O)c2csc3c2CCCC3)cc1 | 10.9
78 | CCCCNC(=O)[C@H](CSCc1ccccc1)N1Cc2ccccc2C1=O | -28.1
79 | O=C(CCC1CCN(C(=O)c2ccccc2Cl)CC1)NCc1ccc(F)cc1 | 4.08
80 | CCOC(=O)C1=C(C)NC(SC)=NC1c1ccccc1.I (stereo not drawn) | 5.88
81 | CNC(=O)CO/N=C/c1ccc(N(C)C)cc1 | 10.7
82 | c1cc(-n2nnc3cnccc32)ccn1 | 14.5
83 | Cc1cccc(-c2nc3ccccc3c(=O)n2NC(=O)Cc2ccc(Cl)cc2)c1 | 3.63
84 | CCOC(=O)C1CC(C)=C(C)CC1C(=O)O (stereo not drawn) | 12
85 | COC(=O)c1ccc(-n2nnnc2SCC(=O)N2CCCCC2)cc1 | 10.4
86 | CCS(=O)(=O)N1CCN(S(=O)(=O)c2ccc3c(c2)OCCO3)CC1 | 13
87 | C[n+]1c(/C=C/c2ccc(O)cc2)ccc2ccccc21.[I-] | -15.9
88 | COc1cc(C2OCC3C(c4ccc(OC5OC(CO)C(O)C(O)C5O)c(OC)c4)OCC23)ccc1O (stereo not drawn) | -7.37
89 | CCC(C)NC(=O)CSc1nnc(-c2cc(-c3cccs3)nc3ccccc23)o1 (stereo not drawn) | 2.87
90 | Cc1ccc(-c2nc(CN3CCCCC3CCN3CCCC3=O)c(C)o2)o1 (stereo not drawn) | -4.78
